# Reference: the supplement of paper PMC8728848
# Some of the results follow.
# Legend:
# Assay in all cases: glycan array binding signal (z-score within array); higher = stronger binding
# Conditions in all cases: glycan notation: IUPAC condensed, linker removed
# GalNAc(b1-3)Gal = target: GalNAc(b1-3)Gal
# In short: (§1)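 Glycan array binding is given as a within-array Z-score, which can be read as non-binding when negative. The arrays, 3228 of them, came from the Consortium for Functional Glycomics database and were retained only where the protein sequence was available. Z-scores were averaged across arrays of the same protein sequence at different concentrations or buffers and across linkers.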
# [1] = target: GalNAc(b1-3)Gal(a1-4)Gal(b1-4)GlcNAc
# In short: as §1
# GalNAc(b1-3)GalNAc = target: GalNAc(b1-3)GalNAc
# In short: as §1
# GalNAc(b1-4)GlcNAc = target: GalNAc(b1-4)GlcNAc
# In short: as §1
# Glc(a1-4)Glc = target: Glc(a1-4)Glc
# In short: as §1
# Glc(a1-6)Glc(a1-6)Glc = target: Glc(a1-6)Glc(a1-6)Glc
# In short: as §1
# Glc(b1-4)Glc = target: Glc(b1-4)Glc
# In short: as §1
# Glc(b1-6)Glc = target: Glc(b1-6)Glc
# In short: as §1
# GlcA(b1-3)Gal = target: GlcA(b1-3)Gal
# In short: as §1
# GlcA(b1-3)GlcNAc = target: GlcA(b1-3)GlcNAc
# In short: as §1
# GlcA(b1-6)Gal = target: GlcA(b1-6)Gal
# In short: as §1
# [2] = target: GlcNAc(a1-3)Gal(b1-4)GlcNAc
# In short: as §1
# [3] = target: GlcNAc(a1-6)Gal(b1-4)GlcNAc
# In short: as §1
# [4] = target: GlcNAc(b1-2)Gal(b1-3)GalNAc
# In short: as §1
# [5] = target: GlcNAc(b1-2)Man(a1-3)[GlcNAc(b1-2)Man(a1-6)]Man(b1-4)GlcNAc(b1-4)GlcNAc
# In short: as §1
# GlcNAc(b1-3)Gal = target: GlcNAc(b1-3)Gal
# In short: as §1
# [6] = target: GlcNAc(b1-3)Gal(b1-3)GalNAc
# In short: as §1
# GlcNAc(b1-3)Gal(b1-4)Glc = target: GlcNAc(b1-3)Gal(b1-4)Glc
# In short: as §1
# [7] = target: GlcNAc(b1-3)Gal(b1-4)GlcNAc
# In short: as §1
# [8] = target: GlcNAc(b1-3)Gal(b1-4)GlcNAc(b1-3)Gal(b1-4)GlcNAc
# In short: as §1
# GlcNAc(b1-3)GalNAc = target: GlcNAc(b1-3)GalNAc
# In short: as §1
# GlcNAc(b1-3)Man = target: GlcNAc(b1-3)Man
# In short: as §1
# [9] = target: GlcNAc(b1-3)[GlcNAc(b1-4)][GlcNAc(b1-6)]GlcNAc
# In short: as §1
# [10] = target: GlcNAc(b1-3)[GlcNAc(b1-6)]Gal(b1-4)GlcNAc
# In short: as §1
# [11] = target: GlcNAc(b1-3)[GlcNAc(b1-6)]GalNAc
# In short: as §1
# [12] = target: GlcNAc(b1-3)[GlcNAc(b1-6)]GlcNAc(b1-4)GlcNAc
# In short: as §1
# [13] = target: GlcNAc(b1-4)Gal(b1-4)GlcNAc
# In short: as §1
# GlcNAc(b1-4)GlcNAc = target: GlcNAc(b1-4)GlcNAc
# In short: as §1
# [14] = target: GlcNAc(b1-4)GlcNAc(b1-4)GlcNAc
# In short: as §1
# [15] = target: GlcNAc(b1-4)GlcNAc(b1-4)GlcNAc(b1-4)GlcNAc(b1-4)GlcNAc
# In short: as §1
# [16] = target: GlcNAc(b1-4)GlcNAc(b1-4)GlcNAc(b1-4)GlcNAc(b1-4)GlcNAc(b1-4)GlcNAc
# In short: as §1
# [17] = target: GlcNAc(b1-4)[GlcNAc(b1-6)]GalNAc
# In short: as §1
# [18] = target: GlcNAc(b1-6)Gal(b1-4)GlcNAc
# In short: as §1
# GlcNAc(b1-6)GalNAc = target: GlcNAc(b1-6)GalNAc
# In short: as §1
# GlcNAc3Prop(b1-4)GlcNAc = target: GlcNAc3Prop(b1-4)GlcNAc
# In short: as §1
# Kdn(a2-3)Gal(b1-3)GlcNAc = target: Kdn(a2-3)Gal(b1-3)GlcNAc
# In short: as §1
# Kdn(a2-3)Gal(b1-4)GlcNAc = target: Kdn(a2-3)Gal(b1-4)GlcNAc
# In short: as §1
# [19] = target: Man(a1-2)Man(a1-2)Man(a1-3)Man
# In short: as §1
# [20] = target: Man(a1-2)Man(a1-2)Man(a1-6)[Man(a1-3)]Man
# In short: as §1
# Man(a1-2)Man(a1-3)Man = target: Man(a1-2)Man(a1-3)Man
# In short: as §1
# [21] = target: Man(a1-2)Man(a1-3)[Man(a1-2)Man(a1-6)]Man
# In short: as §1
# [22] = target: Man(a1-2)Man(a1-3)[Man(a1-2)Man(a1-6)]Man(a1-6)[Man(a1-2)Man(a1-2)Man(a1-3)]Man
# In short: as §1
# [23] = target: Man(a1-2)Man(a1-3)[Man(a1-2)Man(a1-6)]Man(a1-6)[Man(a1-2)Man(a1-2)Man(a1-3)]Man(b1-4)GlcNAc(b1-4)GlcNAc
# In short: as §1
# [24] = target: Man(a1-2)Man(a1-3)[Man(a1-6)]Man(a1-6)[Man(a1-2)Man(a1-3)]Man(b1-4)GlcNAc(b1-4)GlcNAc
# In short: as §1
# [25] = target: Man(a1-2)Man(a1-6)[Man(a1-3)]Man(a1-6)[Man(a1-2)Man(a1-2)Man(a1-3)]Man
# In short: as §1
# [26] = target: Man(a1-2)Man(a1-6)[Man(a1-3)]Man(a1-6)[Man(a1-2)Man(a1-2)Man(a1-3)]Man(b1-4)GlcNAc(b1-4)GlcNAc
# In short: as §1
# Man(a1-3)[Man(a1-6)]Man = target: Man(a1-3)[Man(a1-6)]Man
# In short: as §1
# [27] = target: Man(a1-3)[Man(a1-6)]Man(a1-6)[Man(a1-2)Man(a1-3)]Man(b1-4)GlcNAc(b1-4)GlcNAc
# In short: as §1
# [28] = target: Man(a1-3)[Man(a1-6)]Man(a1-6)[Man(a1-3)]Man
# In short: as §1
# [29] = target: Man(a1-3)[Man(a1-6)]Man(a1-6)[Man(a1-3)]Man(b1-4)GlcNAc(b1-4)GlcNAc
# In short: as §1
# [30] = target: Man(a1-3)[Man(a1-6)]Man(b1-4)GlcNAc(b1-4)GlcNAc
# In short: as §1
# Man(a1-6)Man = target: Man(a1-6)Man
# In short: as §1
# Man(b1-4)GlcNAc = target: Man(b1-4)GlcNAc
# In short: as §1
# Neu5Ac(a2-3)Gal = target: Neu5Ac(a2-3)Gal
# In short: as §1
# [31] = target: Neu5Ac(a2-3)Gal(b1-3)GalNAc
# In short: as §1
# [32] = target: Neu5Ac(a2-3)Gal(b1-3)GalNAc(b1-3)Gal(a1-4)Gal(b1-4)Glc
# In short: as §1
# [33] = target: Neu5Ac(a2-3)Gal(b1-3)GalNAc(b1-3)Gal(b1-4)GlcNAc
# In short: as §1
# [34] = target: Neu5Ac(a2-3)Gal(b1-3)GalNAc(b1-4)[Neu5Ac(a2-3)]Gal(b1-4)Glc
# In short: as §1
# [35] = target: Neu5Ac(a2-3)Gal(b1-3)GalNAc6S
# In short: as §1
# [36] = target: Neu5Ac(a2-3)Gal(b1-3)GlcNAc
# In short: as §1
binder,measurement,setting,value
"E-Selectin (Mus musculus), Q00690 (protein) MNASRFLSALVFVLLAGESTAWYYNASSELMTYDEASAYCQRDYTHLVAIQNKEEINYLNSNLKHSPSYYWIGIRKVNNVWIWVGTGKPLTEEAQNWAPGEPNNKQRNEDCVEIYIQRTKDSGMWNDERCNKKKLALCYTASCTNASCSGHGECIETINSYTCKCHPGFLGPNCEQAVTCKPQEHPDYGSLNCSHPFGPFSYNSSCSFGCKRGYLPSSMETTVRCTSSGEWSAPAPACHVVECEALTHPAHGIRKCSSNPGSYPWNTTCTFDCVEGYRRVGAQNLQCTSSGIWDNETPSCKAVTCDAIPQPQNGFVSCSHSTAGELAFKSSCNFTCEQSFTLQGPAQVECSAQGQWTPQIPVCKAVQCEALSAPQQGNMKCLPSASGPFQNGSSCEFSCEEGFELKGSRRLQCGPRGEWDSKKPTCSAVKCDDVPRPQNGVMECAHATTGEFTYKSSCAFQCNEGFSLHGSAQLECTSQGKWTQEVPSCQVVQCPSLDVPGKMNMSCSGTAVFGTVCEFTCPDDWTLNGSAVLTCGATGRWSGMPPTCEAPVSPTRPLVVALSAAGTSLLTSSSLLYLLMRYFRKKAKKFVPASSCQSLQSFENYHVPSYNV",glycan array binding signal (z-score),GalNAc(b1-3)Gal,-0.283
same,glycan array binding signal (z-score),[1],-0.339
same,glycan array binding signal (z-score),GalNAc(b1-3)GalNAc,-0.3
same,glycan array binding signal (z-score),GalNAc(b1-4)GlcNAc,-0.332
same,glycan array binding signal (z-score),Glc(a1-4)Glc,-0.307
same,glycan array binding signal (z-score),Glc(a1-6)Glc(a1-6)Glc,-0.343
same,glycan array binding signal (z-score),Glc(b1-4)Glc,-0.299
same,glycan array binding signal (z-score),Glc(b1-6)Glc,-0.291
same,glycan array binding signal (z-score),GlcA(b1-3)Gal,-0.296
same,glycan array binding signal (z-score),GlcA(b1-3)GlcNAc,-0.247
same,glycan array binding signal (z-score),GlcA(b1-6)Gal,-0.227
same,glycan array binding signal (z-score),[2],-0.361
same,glycan array binding signal (z-score),[3],-0.338
same,glycan array binding signal (z-score),[4],-0.238
same,glycan array binding signal (z-score),[5],-0.088
same,glycan array binding signal (z-score),GlcNAc(b1-3)Gal,-0.346
same,glycan array binding signal (z-score),[6],-0.238
same,glycan array binding signal (z-score),GlcNAc(b1-3)Gal(b1-4)Glc,-0.322
same,glycan array binding signal (z-score),[7],-0.293
same,glycan array binding signal (z-score),[8],-0.264
same,glycan array binding signal (z-score),GlcNAc(b1-3)GalNAc,-0.248
same,glycan array binding signal (z-score),GlcNAc(b1-3)Man,-0.324
same,glycan array binding signal (z-score),[9],-0.326
same,glycan array binding signal (z-score),[10],-0.36
same,glycan array binding signal (z-score),[11],-0.279
same,glycan array binding signal (z-score),[12],-0.371
same,glycan array binding signal (z-score),[13],-0.265
same,glycan array binding signal (z-score),GlcNAc(b1-4)GlcNAc,-0.324
same,glycan array binding signal (z-score),[14],-0.26
same,glycan array binding signal (z-score),[15],-0.282
same,glycan array binding signal (z-score),[16],-0.365
same,glycan array binding signal (z-score),[17],-0.316
same,glycan array binding signal (z-score),[18],-0.344
same,glycan array binding signal (z-score),GlcNAc(b1-6)GalNAc,-0.272
same,glycan array binding signal (z-score),GlcNAc3Prop(b1-4)GlcNAc,-0.301
same,glycan array binding signal (z-score),Kdn(a2-3)Gal(b1-3)GlcNAc,-0.32
same,glycan array binding signal (z-score),Kdn(a2-3)Gal(b1-4)GlcNAc,-0.305
same,glycan array binding signal (z-score),[19],-0.313
same,glycan array binding signal (z-score),[20],-0.228
same,glycan array binding signal (z-score),Man(a1-2)Man(a1-3)Man,-0.253
same,glycan array binding signal (z-score),[21],-0.348
same,glycan array binding signal (z-score),[22],-0.241
same,glycan array binding signal (z-score),[23],-0.28
same,glycan array binding signal (z-score),[24],-0.332
same,glycan array binding signal (z-score),[25],-0.377
same,glycan array binding signal (z-score),[26],-0.303
same,glycan array binding signal (z-score),Man(a1-3)[Man(a1-6)]Man,-0.314
same,glycan array binding signal (z-score),[27],-0.321
same,glycan array binding signal (z-score),[28],-0.284
same,glycan array binding signal (z-score),[29],-0.268
same,glycan array binding signal (z-score),[30],-0.288
same,glycan array binding signal (z-score),Man(a1-6)Man,-0.287
same,glycan array binding signal (z-score),Man(b1-4)GlcNAc,-0.317
same,glycan array binding signal (z-score),Neu5Ac(a2-3)Gal,-0.277
same,glycan array binding signal (z-score),[31],-0.313
same,glycan array binding signal (z-score),[32],-0.321
same,glycan array binding signal (z-score),[33],-0.138
same,glycan array binding signal (z-score),[34],-0.283
same,glycan array binding signal (z-score),[35],-0.269
same,glycan array binding signal (z-score),[36],-0.304
